Whole data set: some 2,700 sequences, median “arbitrary fluorescence units” near 4,100, cut for the highest 2% near 54,000. The list shows a part of the results.
What follows are sequences tested against T1, ETS1 (UniProt P14921) (assay: ETS1 binding intensity (PBM fluorescence) (arbitrary fluorescence units); higher = stronger binding). Settings: ETS1 concentration 10 nM.
T1 sequence: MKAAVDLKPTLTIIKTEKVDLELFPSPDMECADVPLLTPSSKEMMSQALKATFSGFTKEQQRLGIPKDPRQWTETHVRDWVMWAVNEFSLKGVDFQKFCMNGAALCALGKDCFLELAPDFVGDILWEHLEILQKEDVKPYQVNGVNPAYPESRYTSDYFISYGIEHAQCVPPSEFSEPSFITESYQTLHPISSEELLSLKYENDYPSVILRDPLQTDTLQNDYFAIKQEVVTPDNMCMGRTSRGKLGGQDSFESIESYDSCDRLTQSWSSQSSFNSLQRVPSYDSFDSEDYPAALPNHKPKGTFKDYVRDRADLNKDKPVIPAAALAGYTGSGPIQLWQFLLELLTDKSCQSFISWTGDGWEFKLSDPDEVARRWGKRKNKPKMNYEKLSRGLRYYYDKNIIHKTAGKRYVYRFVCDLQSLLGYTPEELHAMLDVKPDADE
Experimental: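 gcPBM on wild-type 36-bp genomic probes with two neighbouring ETS1 sites (4-24 bp apart). Recombinant human ETS1 (10 nM) was detected with anti-ETS1 antibody fluorescence. Values are medians over 3 replicate spots. The probes sit in constant array flanks that are not printed.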
Sequence GCCAGCAAAGGAGGAAGCCCCTTCCGTCGCTCCCAG has an ETS1 binding intensity of 842. With TCCCAGGATGCCGTGCACCTTTACCTCAGGATGCGA the ETS1 binding intensity was 187. Sequence CTCATGGCAGTTTCCTCCCACATCCTGCTCAGTAGC has an ETS1 binding intensity of 5180. For AAGTACAGGATGCTAGGTGATGCCACATCCTGTTAC, the ETS1 binding intensity was 4980. AGCTGTCCTTCCGCATGCTCCAAACTTCCTCCTTTG gave an ETS1 binding intensity of 2330. Work on CCAGCAACAGGAAGAGCGACAAACTTCCTTGCATCT yielded an ETS1 binding intensity of 5050. Sequence ATGAGCAGGAAGTAGCAAATGCTTCGGATGCCTTCT has an ETS1 binding intensity of 6980. GCTTCGCGGTGCCCGGAAGGAAGCCTTTGAAGAGTA showed an ETS1 binding intensity of 925. For ACACTGCTTTTCCTGGTAACTTACTTCCTCCATAGT, the ETS1 binding intensity was 1430. In the case of GAGAACCGGATGAGGGCTTCACATGAGGAAGCATGT, the ETS1 binding intensity is reported as 7690. TGGGCTTGCTCACTTCCTCTTCCTGTCGGCTGCAGT gave an ETS1 binding intensity of 10400. In the case of TGAACCAGGAAGCGGAGTGGCGGGGCTTCCGGCGCC, the ETS1 binding intensity is reported as 3690. With TAAGAATGCTTATTTCCTGTTTCCTGGGGCCTACAC the ETS1 binding intensity was 23800. TCAGATGAGGAAGTGGGCTGGGGAGGAAGAGGCAGA gave an ETS1 binding intensity of 1110. In the case of TTCCACGGAAACGGCTTTGGCACCACCGGAAGTCAG, the ETS1 binding intensity is reported as 5660. Sequence GGGCTCACTTCCTCCTTTTCAGGCAGGAAAAGCAGA has an ETS1 binding intensity of 16800. TGTGATGTTTCCTCTTGCTGTGGTTTCCTGTCATGG was tested, and the ETS1 binding intensity was 4090. Work on ACACAGGAAAGCAGATGTGTTCTGGCCGGAAGTTGA yielded an ETS1 binding intensity of 2410. ACATGCCCCACGGGATGTAGGGATGTGTGTGAACTG gave an ETS1 binding intensity of 172. TGCATAATTCTTCCTGTCAGATTTCCTTTTCTGTAA gave an ETS1 binding intensity of 5410. Work on CCCGGCGGCGACGGAAAATCTTCCGGACGACCGGCA yielded an ETS1 binding intensity of 267. For TGTTTTCCTGGGGAGTTCACACTGATGAGGATGTGC, the ETS1 binding intensity was 1920. AAAGAAAACAGGATGGGCAGCCAGGAAGATTTTTTT gave an ETS1 binding intensity of 460. Work on GCTGCAATGATTTCCTCTGTGTTTCCTTTGGCTACA yielded an ETS1 binding intensity of 3440. Sequence GCCTGGTACTTCCCAGCTACTCAGGAAGCTGAGGTG has an ETS1 binding intensity of 433. For GCGAACACGTCGGAACAGTGACTTCCGGCGGAAGAA, the ETS1 binding intensity was 12700. In the case of CCTCCGGAAGTAGTGGGTTCCCATGGCCGGAAGTGT, the ETS1 binding intensity is reported as 17300. Work on ATTTTGCAGAGGAGGAAACGGAAATTCAGAGAAGTA yielded an ETS1 binding intensity of 819. Sequence TCTGAAGACAGGAAGCTGCCTCAGGAAGCAATGATC has an ETS1 binding intensity of 6380. With TCACTTCCCCTGAAGCTTATTTTGCCTCTTCCTGTG the ETS1 binding intensity was 8490. With GAGGTGCGGATAGGGACTCTTTACCGGAAGTCGGAG the ETS1 binding intensity was 4550. Sequence TGTAATCACAGGAAGTTGAACAGGATGTGAGGAGAT has an ETS1 binding intensity of 7760. Work on GATAACTTCCGCTGTCCGCACCCCACTTCCGCCCCG yielded an ETS1 binding intensity of 36200. CAAACCAGCCGGAAGCGACATCTTCCGGTTGCTACA showed an ETS1 binding intensity of 19000. In the case of GTATCCAGGATGTGGTAGTCTCACCGGAAGGAGCCA, the ETS1 binding intensity is reported as 4490.

Reference: the supplement of paper PMC10681739
